Laboratory results from PMC13288828.
No constants are given. Whether binding was seen depends on the method and setting. In cells and extracts the contact can be indirect. Some binding calls cover weakened binding; strength is not graded here. Tags and fused reporters may be left off the sequences shown.

Biological target: T1, Flag-tagged IRF3 (Flag-IRF3) (UniProt Q14653)
T1 sequence: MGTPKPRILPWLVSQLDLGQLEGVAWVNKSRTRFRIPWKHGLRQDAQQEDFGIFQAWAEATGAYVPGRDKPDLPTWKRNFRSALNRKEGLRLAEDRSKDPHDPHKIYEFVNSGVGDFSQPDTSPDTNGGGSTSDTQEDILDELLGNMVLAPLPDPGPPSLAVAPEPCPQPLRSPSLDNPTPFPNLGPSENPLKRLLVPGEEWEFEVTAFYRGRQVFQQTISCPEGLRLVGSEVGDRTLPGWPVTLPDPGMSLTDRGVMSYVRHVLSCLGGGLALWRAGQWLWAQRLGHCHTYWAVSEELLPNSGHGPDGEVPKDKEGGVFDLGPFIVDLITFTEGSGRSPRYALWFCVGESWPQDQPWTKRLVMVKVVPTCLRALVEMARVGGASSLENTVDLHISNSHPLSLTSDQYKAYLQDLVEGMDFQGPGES
Test: co-IP

- binding: binds
B1: HA-TBK1 (enzyme, UniProt Q9UHD2 1-729)
chain: MQSTSNHLWLLSDILGQGATANVFRGRHKKTGDLFAIKVFNNISFLRPVDVQMREFEVLKKLNHKNIVKLFAIEEETTTRHKVLIMEFCPCGSLYTVLEEPSNAYGLPESEFLIVLRDVVGGMNHLRENGIVHRDIKPGNIMRVIGEDGQSVYKLTDFGAARELEDDEQFVSLYGTEEYLHPDMYERAVLRKDHQKKYGATVDLWSIGVTFYHAATGSLPFRPFEGPRRNKEVMYKIITGKPSGAISGVQKAENGPIDWSGDMPVSCSLSRGLQVLLTPVLANILEADQEKCWGFDQFFAETSDILHRMVIHVFSLQQMTAHKIYIHSYNTATIFHELVYKQTKIISSNQELIYEGRRLVLEPGRLAQHFPKTTEENPIFVVSREPLNTIGLIYEKISLPKVHPRYDLDGDASMAKAITGVVCYACRIASTLLLYQELMRKGIRWLIELIKDDYNETVHKKTEVVITLDFCIRNIEKTVKVYEKLMKINLEAAELGEISDIHTKLLRLSSSQGTIETSLQDIDSRLSPGGSLADAWAHQEGTHPKDRNVEKLQVLLNCMTEIYYQFKKDKAERRLAYNEEQIHKFDKQKLYYHATKAMTHFTDECVKKYEAFLNKSEEWIRKMLHLRKQLLSLTNQCFDIEEEVSKYQEYTNELQETLPQKMFTASSGIKHTMTPIYPSSNTLVEMTLGMKKLKEEMEGVVKELAENNHILERFGSLTMDGGLRNVDCL
